The values that follow come from PubChem BioAssay AID1240 (Sanford-Burnham Center for Chemical Genomics, 2008).

Out of some 50,000 compounds screened, about 800 (1.6%) showed an effect of 50% or more. Some of the results follow.

In this test the target is Bcl-2-like protein 10 (Homo sapiens) (UniProt Q9HD36). Put plainly: TR3 peptide-Bcl-B binding displacers, biochemical primary FP assay, phenotype converters (AID 1240).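 Note: 0% = Bcl-B with tracer peptide and DMSO and 100% = tracer peptide lacking Bcl-B.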 The conditions noted are these: GST-Bcl-B / FITC-TR3 peptide fluorescence polarization; stronger effect = higher value; compound at 3.75 mg/L. In general terms: In fluorescence polarisation assays a small probe gives low polarisation when free and higher when bound to something large.
Chain of UniProt Q9HD36 (Q9HD36 whole entry, looked up): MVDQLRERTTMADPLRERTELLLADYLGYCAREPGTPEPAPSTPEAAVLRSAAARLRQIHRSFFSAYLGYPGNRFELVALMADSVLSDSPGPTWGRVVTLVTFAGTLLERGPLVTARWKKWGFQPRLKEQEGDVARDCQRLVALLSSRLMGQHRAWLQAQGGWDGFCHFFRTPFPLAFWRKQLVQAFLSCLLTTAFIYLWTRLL
Take `N#C/C(=C\c1ccc(-c2ccc(S(N)(=O)=O)cc2)o1)C(N)=O`: the displacement was -12.2%.
Then `Cc1cc(=O)oc2c(C)c3occ(-c4ccccc4)c3cc12`, with 8.7%; and `COc1ccc(-c2cc(C(=O)Nc3ccc(F)cc3)c3ccccc3n2)cc1OC`, with -13.4%.
For `O=[N+]([O-])c1ccc(NCCNS(=O)(=O)Cc2ccccc2)cc1` the value was -7.8%.
As for `COc1ccccc1OCC(=O)Nc1ccc(S(N)(=O)=O)cc1`, the displacement stood at 6.7%.
On to `O=C(c1ccc(Br)o1)N1CCN(c2ccc(Cl)cc2)CC1`, for which the displacement is 6.8%.
For `CCOc1ccc(C2CC(=O)NC(SCC#N)=C2C#N)cc1OC` (centres undefined) the value was -8.9%.
Then `CCOc1ccc(N2C(=O)/C(=C/c3ccc(-c4ccc([N+](=O)[O-])cc4C)o3)C(=O)NC2=S)cc1`, with -5.3%; and `COc1cc(NS(=O)(=O)c2cc(Cl)ccc2Cl)c2ncccc2c1`, with -2.6%; and `CCC(=O)c1ccc(N2CCN(C(=O)c3ccccc3Br)CC2)c(F)c1`, with -13.4%.
Then `COc1ccc(C2C3C(=O)N(c4ccc(F)cc4)C(=O)C3ON2c2ccccc2)cc1` (centres undefined), with -3.7%; and `CCCc1c(C)[nH]c2ccc(NC(C)=O)cc2c1=O`, with -1.3%.
Take `O=C(Nc1ccc(-c2ccccc2)cc1)c1cccnc1`: the displacement stood at 1.2%.
With `O=C(Nc1ccc(Cc2ccc(NC(=O)C(F)(F)F)c(Cl)c2)cc1Cl)C(F)(F)F`, the displacement is -2.5%.
In the case of `COC(=O)C1=C(C(=O)OC)SC(=C2C(=S)C(C)(C)N(C(=O)c3cccc(F)c3)c3c(OC)cccc32)S1`, the displacement was determined as 9.1%.
For `O=C(Nc1nc(-c2ccc3ccccc3c2)cs1)c1ccc(Cl)cc1[N+](=O)[O-]` the value was -0.8%; for `O=C(Nc1ccc(OC(F)(F)F)cc1)c1ccc(OCc2ccccc2)cc1`, -18.3%.
Then `O=C(CC1Sc2ccccc2NC1=O)Nc1ccc(OC(F)F)cc1` (centres undefined), with -5.2%; and `COc1ccc(CCNC(=O)c2ccc3c(c2)OCO3)cc1OC`, with 5.4%.
For `CCOC(=O)c1cc2c(nc1NC(=S)Nc1ccccc1)CC(C)(C)OC2` the value was 11%.
As to `CCSc1nnc(-c2ccc(OC)cc2)c2ccccc12`, the displacement was -7.7%.
Then `O=C(NCC1(c2ccccc2)CCOCC1)C1COc2ccccc2O1` (centres undefined), with -8.6%; and `O=C(CSc1nc2sc3c(c2c(=O)[nH]1)CCCC3)NCCCO`, with -11.4%.
For `Cc1ccccc1NC1=C(Cl)C(=O)N(c2cccc(C)c2C)C1=O` the value was 13.8%; for `O=C(N/N=C/c1ccc(OC(=O)c2ccc(Br)cc2)cc1)c1cccc([N+](=O)[O-])c1`, 7.8%; for `O=C(/C=C/c1cn(-c2ccccc2)nc1-c1ccccc1)N1CCOCC1`, 7.3%.
Then `COc1ccc(-c2csc(NC(=O)c3cccc(Cl)c3)c2C(=O)O)cc1`, with 3.2%; and `COc1cc(/C=C2/C(=O)NN(c3ccc(C)c(C)c3)C2=O)cc(I)c1O`, with -75%; and `CCCOc1ccc(C(=O)Nc2cccc(C(C)=O)c2)cc1`, with -10.6%.
In the case of `Cc1c(C(=O)Nc2cccc(S(N)(=O)=O)c2)oc2ccc(Cl)cc12`, the displacement was -1.9%.
For `O=C1/C(=C\c2ccc(-c3ccc([N+](=O)[O-])cc3Br)o2)SC(=S)N1c1ccccc1` the value was 17.4%; for `COc1cc(C2C3=C(CC(C)(C)CC3=O)OC3=C2C(=O)CC(C)(C)C3)cc(OC)c1OC(C)=O`, -1.3%; for `Cc1ccc(Cl)c(OCCCCN2CCOCC2)c1`, -12.1%.
As for `Brc1ccc(CC(Cc2nc3ccccc3[nH]2)c2nc3ccccc3[nH]2)cc1` (centres undefined), the displacement is -6.3%.
On to `CNC(=O)C(=O)NCCc1ccc(Cl)cc1`, for which the displacement is 11.6%.
For `Cc1cc(N2CCC(C)CC2)n2c(nc3ccccc32)c1C#N` the value was 1.8%; for `O=C1/C(=C\Nc2ccccc2O)CCc2ccccc21`, 3.8%; for `N#Cc1c2nc[nH]c(=O)c2c2n1CCC2`, 6.1%.
`CCc1ccccc1N(CC(=O)N1CCCC1)S(C)(=O)=O`: the displacement is -2.5%.
`O=C(O)c1ccc(S(=O)(=O)c2ccc(Sc3ccc(C(=O)O)c(C(=O)O)c3)cc2)cc1`: the displacement is 2.4%.
Then `COc1ccc(C(=O)N2CCN(Cc3ccc(OC)c(Br)c3)CC2)cc1`, with -7%; and `Cc1cc(C)cc(NC(=O)CN(c2ccc(Oc3ccccc3)cc2)S(C)(=O)=O)c1`, with -1.3%; and `COc1ccc(-c2cc(C(F)(F)F)n3ncc(C(=O)NCC4CCCO4)c3n2)cc1` (centres undefined), with 0.9%.
For `CCOC(=O)C(=Cc1cc(OC)c(OC)cc1Br)C(=O)OCC` the value was 2.6%; for `Cc1ccc(C23CC4CC(CC(C(=O)Nc5cccc(C(=O)O)c5)(C4)C2)C3)cc1`, -4.8%.
As for `N#CC(C#N)=Cc1cn(-c2ccccc2)nc1-c1ccc(-c2ccc([N+](=O)[O-])cc2)o1`, the displacement was -5.9%.
For `O=C(COc1ccc([N+](=O)[O-])cc1)Nc1ccccc1O` the value was 7.4%.
Turning to `COc1cc(CN2CCOCC2)cc(C=O)c1O`, the displacement was -6.2%.
For `Cc1ccc(C(=O)CC2(O)C(=O)Nc3ccc(Br)cc32)cc1` (centres undefined) the value was 0.8%; for `O=C(O)CN(Cc1ccccc1)S(=O)(=O)c1ccccc1`, -0.1%; for `CCOC(=O)c1c(NC(=O)/C=C/c2ccc(C)cc2)sc(C)c1C`, -2.5%.
Then `CCCC(=O)Nc1sc2c(c1C(=O)OCC)CCCC2`, with 2.6%.
For `CC(C)CNc1nc(-c2ccc(Cl)cc2)nc2ccccc12` the value was -2.5%.
For `COc1cc(C(=S)N2CCOCC2)ccc1OCc1ccccc1`, the displacement is -2.8%.
As for `COc1cc(C=O)c(Br)c(OC)c1OC`, the displacement is 7.2%.
Then `O=C(/C=C/NCc1ccccc1)c1ccc(Cl)cc1`, with -7.7%; and `O=C1CC(c2ccccc2C(F)(F)F)c2ccccc2N1` (centres undefined), with -9%; and `Cc1ccc(N(CC(=O)Nc2ccccc2Cl)S(=O)(=O)c2ccc(F)cc2)cc1`, with 11.2%.
As to `N#CC1=C(N)Oc2cc(O)ccc2C1C1CC=CCC1` (centres undefined), the displacement was found to be 17.5%.
For `NS(=O)(=O)c1ccc(CNC(=O)c2ccccc2Br)cc1` the value was 9%; for `O=C(NCC1CCCO1)Nc1cccc(Cl)c1` (centres undefined), 10.4%; for `O=C1C2C(C(=O)N1/N=C/c1cccc(Cl)c1)C1C=CC2C12CC2` (centres undefined), -6.1%.
On to `COc1cccc(C(=O)Nc2sc3c(c2C#N)CC(C)(C)OC3)c1`, for which the displacement was -3.5%.
For `COc1cc(/C=C2\C=C(c3ccc(C)cc3)OC2=O)ccc1OC(C)=O` the value was 59.2%; for `O=C1NCCN/C1=C\C(=O)c1ccc(F)cc1`, -4.5%.
Then `CCOc1cc(/C=C2/C(=O)NC(=O)N(c3ccccc3)C2=O)cc(Br)c1O`, with 14.7%.
Turning to `COc1cc(OC)c(OC)cc1CN1CCN(S(C)(=O)=O)CC1`, the displacement was 10.5%.
Then `O=C(N=Nc1c(O)n(Cc2ccccc2)c2ccccc12)c1ccccc1[N+](=O)[O-]`, with 1.9%.
For `COC(=O)CCN(C(=O)c1ccc(F)cc1)c1ccccn1` the value was -12%.
